# Laboratory results as given in patent US7541018B2, “Treatment process using somatostatin analogues” (University of Bern, priority 2001, dated 2009).
# Values joined by “and” are separate entries in the source; they are usually repeats but may differ in a detail not shown here. Equal entries are not always repeated. Part of at least one peptide drawing is inferred or uncertain, most often the ends. At least one compound was matched to its structure with a doubt left. Bridge positions count the residues as written; N and C are the ends. Square brackets hold non-standard residues; d marks the D form. Peptide text beside a SMILES is read from it. * marks the point of attachment. DOTA = O=C(O)CN1CCN(CC(=O)O)CCN(CC(=O)*)CCN(CC(=O)O)CC1; dDab = NCC[C@@H](N)C(=O)O; GABA = NCCCC(=O)O
# Key:
# Assay in all cases: Receptor autoradiography displacement of 125I-[Leu8,D-Trp22,Tyr25]-somatostatin 28 on membrane pellet sections
# Assay type in all cases: binding
# [1] = target: T1, human sst1 (Homo sapiens, UniProt P30872); conditions: CHO-K1 cells stably expressing human sst1; sectioned membrane pellets; read-out: IC50 hsst1
# T1 construct: expressed in transfected cells; host or cells: CHO-K1
# T1 sequence (P30872 whole entry): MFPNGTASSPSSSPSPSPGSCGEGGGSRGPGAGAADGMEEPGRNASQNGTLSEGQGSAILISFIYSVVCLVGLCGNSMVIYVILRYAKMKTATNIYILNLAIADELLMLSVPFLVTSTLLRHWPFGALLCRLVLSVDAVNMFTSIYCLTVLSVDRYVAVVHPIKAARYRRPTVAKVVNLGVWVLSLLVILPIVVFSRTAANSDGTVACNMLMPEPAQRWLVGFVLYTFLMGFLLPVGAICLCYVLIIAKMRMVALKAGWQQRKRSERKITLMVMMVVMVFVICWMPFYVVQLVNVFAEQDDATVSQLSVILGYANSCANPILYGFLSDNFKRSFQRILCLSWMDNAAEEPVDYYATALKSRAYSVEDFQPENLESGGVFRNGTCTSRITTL
# Description: (§1) Cell culture CHO-K1 cells stably expressing human sst1 and sst5 were kindly provided by Drs. T. Reisine and G. Singh (University of Pennsylvania, Philadelphia, Pa.) and CCL39 cells stably expressing human sst2, sst3, and sst4 by Dr. D. Hoyer (Novartis Pharma, Basel, Switzerland).
# (§2) CHO-K1 cells were grown in Ham's F-12 medium and CCL39 cells in Dulbecco's modified Eagle's medium/Ham's F-12 (1:1) mix, supplemented with 10% fetal bovine serum, 100 μg/mL penicillin and 100 μg/mL streptomycin, in humidified air containing 5% CO2 at 37° C. Geneticin (G418-sulfate; Gibco, USA) was used where necessary to maintain selection pressure at a final concentration of 400 μg/mL for sst2 to sst4—and 285 μg/mL for sst5—expressing cells as described previously (Rens-Domiano S. & Reisine T., Biochemical and functional properties of somatostatin receptors, J. Neurochem., 58:1987-1996 (1992); O'Caroll A. et al., Characterization of cloned human somatostatin receptor SSTR5, Molec. Pharmacol., 46:291-298 (1994); Siehler S. et al., [^125I]Tyr^10-cortistatin14 labels all five somatostatin receptors, Naunyn-Schmiedeberg's Arch. Pharmacol., 357:483-489 (1998).).
# (§3) Cells were washed twice with and scraped into ice-cold 0.05 M Tris-CHl (pH 7.4), collected by centrifugation, and homogenized using a rotor/stator slash system (POLYTRON®, Kinematica Inc., Littau, Switzerland) in the same buffer. After centrifugation at 120 g for 5 min at 4° C., the supernatant was collected and centrifuged again at 48,000 g for 30 min at 4° C. The resulting pellet was re-suspended in ice-cold Tris buffer, transferred into a microfuge tube, and centrifuged at 20,000 g for 15 min at 4° C. After withdrawal of the supernatant, the membrane pellet was stored at −80° C.
# (§4) Receptor autoradiography was performed on 20 μm thick cryostat (Leitz 1720, Rockleigh, N.J.) sections of the membrane pellets, mounted on microscope slides, and then stored at −20° C.
# (§5) IC50 values were calculated after quantification of the data using a computer-assisted image processing system as described previously (Reubi, J. C. et al., Detection of somatostatin receptors in surgical and percutaneous needle biopsy samples of carcinoids and islet cell carcinomas, Cancer Res. 50: 5969-5977 (1990).). Tissue standards (Autoradiographic [^125I] microscales, Amersham) that contain known amounts of isotope, cross-calibrated to tissue-equivalent ligand concentrations were used for quantification (Reubi, J. C., In vitro identification of vasoactive intestinal peptide receptors in human tumors: Implications for tumor imaging, J. Nucl. Med. 36: 1846-1853 (1995).).
# [2] = target: T2, human sst2 (Homo sapiens, UniProt P30874); conditions: CCL39 cells stably expressing human sst2; sectioned membrane pellets; read-out: IC50 hsst2
# T2 construct: expressed in transfected cells; host or cells: CCL39
# T2 sequence (P30874 whole entry): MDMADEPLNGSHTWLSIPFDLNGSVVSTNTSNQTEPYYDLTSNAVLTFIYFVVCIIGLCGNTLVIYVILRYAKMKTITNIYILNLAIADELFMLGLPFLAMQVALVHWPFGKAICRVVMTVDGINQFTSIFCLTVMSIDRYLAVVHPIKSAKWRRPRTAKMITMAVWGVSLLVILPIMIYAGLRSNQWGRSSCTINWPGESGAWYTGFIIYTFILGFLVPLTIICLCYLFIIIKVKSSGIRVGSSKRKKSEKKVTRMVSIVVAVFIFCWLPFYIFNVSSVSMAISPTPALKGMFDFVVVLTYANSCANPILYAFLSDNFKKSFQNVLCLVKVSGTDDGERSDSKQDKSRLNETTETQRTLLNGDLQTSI
# Description: as §1, §2, §3, §4, §5
# [3] = target: T3, human sst4 (Homo sapiens, UniProt P31391); conditions: CCL39 cells stably expressing human sst4; sectioned membrane pellets; read-out: IC50 hsst4
# T3 construct: expressed in transfected cells; host or cells: CCL39
# T3 sequence (P31391 whole entry): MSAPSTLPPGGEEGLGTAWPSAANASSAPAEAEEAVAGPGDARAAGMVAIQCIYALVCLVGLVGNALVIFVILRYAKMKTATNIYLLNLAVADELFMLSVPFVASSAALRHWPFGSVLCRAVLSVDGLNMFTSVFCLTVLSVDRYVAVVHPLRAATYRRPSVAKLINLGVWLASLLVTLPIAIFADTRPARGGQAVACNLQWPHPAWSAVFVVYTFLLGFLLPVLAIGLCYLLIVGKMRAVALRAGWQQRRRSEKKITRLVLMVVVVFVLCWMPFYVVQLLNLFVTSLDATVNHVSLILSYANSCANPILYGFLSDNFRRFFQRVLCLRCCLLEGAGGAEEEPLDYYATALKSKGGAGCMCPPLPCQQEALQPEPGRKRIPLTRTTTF
# Description: as §1, §2, §3, §4, §5
# [4] = target: T4, human sst5 (Homo sapiens, UniProt P35346); conditions: CHO-K1 cells stably expressing human sst5; sectioned membrane pellets; read-out: IC50 hsst5
# T4 construct: expressed in transfected cells; host or cells: CHO-K1
# T4 sequence (P35346 whole entry): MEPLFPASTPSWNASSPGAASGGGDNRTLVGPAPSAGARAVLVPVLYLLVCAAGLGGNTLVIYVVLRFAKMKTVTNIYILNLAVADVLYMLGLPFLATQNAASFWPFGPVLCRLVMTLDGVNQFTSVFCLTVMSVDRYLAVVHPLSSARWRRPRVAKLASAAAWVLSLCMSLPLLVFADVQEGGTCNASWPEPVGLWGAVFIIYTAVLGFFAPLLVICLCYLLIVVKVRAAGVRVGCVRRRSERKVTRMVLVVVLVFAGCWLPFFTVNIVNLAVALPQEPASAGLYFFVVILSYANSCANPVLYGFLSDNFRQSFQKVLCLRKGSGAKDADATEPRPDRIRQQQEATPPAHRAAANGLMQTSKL
# Description: as §1, §2, §3, §4, §5
# [5] = target: T5, human sst3 (Homo sapiens, UniProt P32745); conditions: CCL39 cells stably expressing human sst3; sectioned membrane pellets; read-out: IC50 hsst3
# T5 construct: expressed in transfected cells; host or cells: CCL39
# T5 sequence (P32745 whole entry): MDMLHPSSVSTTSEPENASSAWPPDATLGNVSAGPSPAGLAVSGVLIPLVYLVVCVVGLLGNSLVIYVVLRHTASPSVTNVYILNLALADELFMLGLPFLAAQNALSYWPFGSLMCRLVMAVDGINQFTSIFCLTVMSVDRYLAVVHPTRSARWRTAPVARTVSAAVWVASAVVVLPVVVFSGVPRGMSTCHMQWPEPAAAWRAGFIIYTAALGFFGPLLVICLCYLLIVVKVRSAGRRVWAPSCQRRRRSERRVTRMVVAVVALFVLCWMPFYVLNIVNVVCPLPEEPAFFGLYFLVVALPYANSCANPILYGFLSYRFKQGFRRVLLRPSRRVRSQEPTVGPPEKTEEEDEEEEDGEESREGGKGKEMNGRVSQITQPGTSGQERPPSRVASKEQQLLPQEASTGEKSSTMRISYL
# Description: as §1, §2, §3, §4, §5
smiles,measurement,setting,value
"C[C@@H](O)[C@@H]1NC(=O)[C@H](CCCCN)NC(=O)[C@@H](Cc2c[nH]c3ccccc23)NC(=O)[C@H](Cc2ccccc2)NC(=O)[C@H](Cc2ccccc2)NC(=O)[C@H](CCCNC(=N)N)NC(=O)[C@H](NC(=O)CCC(C(=O)O)N2CCN(CC(=O)O)CCN(CC(=O)O)CCN(CC(=O)O)CC2)CCNC(=O)[C@H](Cc2ccccc2)NC1=O (single isomer, unassigned) [A, Z = DOTAGA]",IC50,[1],40 nM and 24 nM
same,IC50,[2],3.8 nM
same,IC50,[3],3 nM and 2.3 nM
same,IC50,[4],1.5 nM and 1.9 nM
"C[C@@H](O)[C@@H]1NC(=O)[C@H](CCCCN)NC(=O)[C@@H](Cc2c[nH]c3ccccc23)NC(=O)[C@H](Cc2ccccc2)NC(=O)[C@H](Cc2ccccc2)NC(=O)[C@H](CCCNC(=N)N)NC(=O)[C@H](NC(=O)CCC(C(=O)O)N2CCN(CC(=O)O)CCN(CC(=O)O)CCN(CC(=O)O)CC2)CCNC(=O)[C@H](Cc2ccccc2)NC1=O (single isomer, unassigned) [A, Z = Y-DOTAGA]",IC50,[1],64 nM and 34 nM
same,IC50,[2],7.5 nM and 5 nM
same,IC50,[3],8 nM and 4.4 nM
same,IC50,[4],3.1 nM and 2.7 nM
"C[C@@H](O)[C@@H]1NC(=O)[C@H](CCCCN)NC(=O)[C@@H](Cc2c[nH]c3ccccc23)NC(=O)[C@H](Cc2ccccc2)NC(=O)[C@H](Cc2ccccc2)NC(=O)[C@H](CCCNC(=N)N)NC(=O)[C@H](NC(=O)CN2CCN(CC(=O)O)CCN(CC(=O)O)CCN(CC(=O)O)CC2)CCNC(=O)[C@H](Cc2ccccc2)NC1=O [A, Z = Ga-DOTA] ({DOTA}-[dDab]RFF[dW]KTF; lactam 1-C)",IC50,[1],6 nM
same,IC50,[2],5.2 nM
same,IC50,[3],4.1 nM
"C[C@@H](O)[C@@H]1NC(=O)[C@H](CCCCN)NC(=O)[C@@H](Cc2c[nH]c3ccccc23)NC(=O)[C@H](Cc2ccccc2)NC(=O)[C@H](Cc2ccccc2)NC(=O)[C@H](CCCNC(=N)N)NC(=O)[C@H](NC(=O)[C@@H](N)Cc2ccc(O)cc2)CCNC(=O)[C@H](Cc2ccccc2)NC1=O [A, Z = Tyr] (H-Y[dDab]RFF[dW]KTF; lactam 2-C; N-terminus assumed)",IC50,[1],1.8 nM
same,IC50,[2],0.6 nM
same,IC50,[5],1.4 nM
same,IC50,[3],1.3 nM
same,IC50,[4],0.48 nM
"C[C@@H](O)[C@@H]1NC(=O)[C@H](CCCCN)NC(=O)[C@@H](Cc2c[nH]c3ccccc23)NC(=O)[C@H](Cc2ccccc2)NC(=O)[C@H](Cc2ccccc2)NC(=O)[C@H](CCCNC(=N)N)NC(=O)[C@H](NC(=O)CN2CCN(CC(=O)O)CCN(CC(=O)O)CCN(CC(=O)O)CC2)CCNC(=O)[C@H](Cc2ccccc2)NC1=O [A, Z = Y-DOTA] ({DOTA}-[dDab]RFF[dW]KTF; lactam 1-C)",IC50,[1],3.5 nM and 2.4 nM and 4.6 nM
same,IC50,[3],2.1 nM and 1.1 nM and 2 nM
"C[C@@H](O)[C@@H]1NC(=O)[C@H](CCCCN)NC(=O)[C@@H](Cc2c[nH]c3ccccc23)NC(=O)[C@H](Cc2ccccc2)NC(=O)[C@H](Cc2ccccc2)NC(=O)[C@H](CCCNC(=N)N)NC(=O)CCCNC(=O)[C@H](Cc2ccccc2)NC1=O [Arg-derivative, reference compound] (cyclo(FF[dW]KTF[GABA]R))",IC50,[1],20 nM
same,IC50,[2],4 nM
same,IC50,[5],2.5 nM
same,IC50,[3],10.6 nM
same,IC50,[4],2.7 nM
